# Data: the supplement of paper PMC4604168 (melanoma cell lines)
# The other results are listed elsewhere or left out. Repeats are few or missing, and single values can be far off.
# Test system: COLO800
# Test: cell count relative to DMSO control; melanoma cells; higher = more viable cells
# Conditions: library dose: standard library concentration; 72 h
# 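Further: cells treated in 1,536-well plates, then fixed and DAPI-stained, with nuclei counted from automated high-throughput microscope images.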
row,Compound,cell count [%]
1,"O=c1[nH]nc(Sc2ncc([N+](=O)[O-])s2)n1-c1ccc2c(c1)OCCO2 + Cc1nc(Nc2ncc(C(=O)Nc3c(C)cccc3Cl)s2)cc(N2CCN(CCO)CC2)n1 [dasatanib] (first compound 1 µM, partner dose 0.02 µM)",45.1
2,"O=C(O)c1ccc(-c2c[nH]c3ncc(-c4ccccc4)cc23)cc1C1CCCC1 + O=S(=O)(c1ccccc1)N(CC(F)(F)F)c1ccc(C(O)(C(F)(F)F)C(F)(F)F)cc1 [T0901317] (first compound 0.8 µM, partner dose 7 µM)",72.4
3,"Cn1cncc1[C@@](N)(c1ccc(Cl)cc1)c1ccc2c(c1)c(-c1cccc(Cl)c1)cc(=O)n2C [tipifarnib] + CN(NC(=O)CC(=O)NN(C)C(=S)c1ccccc1)C(=S)c1ccccc1 [STA4783] (first compound 0.05 µM, partner dose 0.03 µM)",12.1
4,"O=c1[nH]nc(Sc2ncc([N+](=O)[O-])s2)n1-c1ccc2c(c1)OCCO2 + COc1ccc(-c2ccc3c(N4CCOCC4)nc(N4C[C@@H](C)O[C@@H](C)C4)nc3n2)cc1CO [KU0063794] (first compound 1 µM, partner dose 0.1 µM)",99
5,"Cn1cncc1[C@@](N)(c1ccc(Cl)cc1)c1ccc2c(c1)c(-c1cccc(Cl)c1)cc(=O)n2C [tipifarnib] + CN(C)S(=O)(=O)c1ccc2c(c1)/C(=C/c1cc3c([nH]1)CCCC3)C(=O)N2 [SU6656] (first compound 0.05 µM, partner dose 2 µM)",55.6
6,"O=C(Nc1cccc(Cl)c1)Nc1ncc(CCNc2ncnc3ccsc23)s1 + O=C(O)c1ccc(-c2c[nH]c3ncc(-c4ccccc4)cc23)cc1C1CCCC1 [GSK650394] (first compound 0.004 µM, partner dose 0.8 µM)",57.9
7,"O=c1[nH]nc(Sc2ncc([N+](=O)[O-])s2)n1-c1ccc2c(c1)OCCO2 + C#Cc1cccc(Nc2ncnc3cc(OCCOC)c(OCCOC)cc23)c1 [erlotinib] (first compound 1 µM, partner dose 4 µM)",52.8
8,"O=c1[nH]nc(Sc2ncc([N+](=O)[O-])s2)n1-c1ccc2c(c1)OCCO2 + C[C@@H](N)c1ccc(C(=O)Nc2ccnc3[nH]ccc23)cc1 [RKI983] (first compound 1 µM, partner dose 2 µM)",51.9
9,"COc1cc(Nc2ncc(F)c(Nc3ccc4c(n3)NC(=O)C(C)(C)O4)n2)cc(OC)c1OC [Tamatinib] + CC(C)(C)c1cnc(CSc2cnc(NC(=O)C3CCNCC3)s2)o1 [SNS-032] (first compound 2 µM, partner dose 0.05 µM)",48.3
10,"O=c1[nH]nc(Sc2ncc([N+](=O)[O-])s2)n1-c1ccc2c(c1)OCCO2 + NCC(=O)Nc1ccc(-n2nc(C(F)(F)F)cc2-c2ccc3c(ccc4ccccc43)c2)cc1 [OSU03012] (first compound 1 µM, partner dose 5 µM)",68.9
11,"O=c1[nH]nc(Sc2ncc([N+](=O)[O-])s2)n1-c1ccc2c(c1)OCCO2 + CN(NC(=O)CC(=O)NN(C)C(=S)c1ccccc1)C(=S)c1ccccc1 [STA4783] (first compound 1 µM, partner dose 0.03 µM)",20.2
12,"C[C@@H]1CCN(C(=O)CC#N)C[C@@H]1N(C)c1ncnc2[nH]ccc12 + O=C(Nc1ccccc1)c1cc([N+](=O)[O-])ccc1Cl [GW9662] (first compound 5 µM, partner dose 10 µM)",81.6
13,"O=c1[nH]nc(Sc2ncc([N+](=O)[O-])s2)n1-c1ccc2c(c1)OCCO2 + NC1(c2ccc(-c3nc4ccn5c(=O)[nH]nc5c4cc3-c3ccccc3)cc2)CCC1 [MK2206] (first compound 1 µM, partner dose 2 µM)",69.4
14,"C[C@@H]1CCN(C(=O)CC#N)C[C@@H]1N(C)c1ncnc2[nH]ccc12 + O=C(O)c1ccc(-c2c[nH]c3ncc(-c4ccccc4)cc23)cc1C1CCCC1 [GSK650394] (first compound 5 µM, partner dose 0.8 µM)",13.6
15,"CC1(C)NC(=O)N(c2ccc([N+](=O)[O-])c(C(F)(F)F)c2)C1=O [nilutamide] + O=C(O)c1ccc(-c2c[nH]c3ncc(-c4ccccc4)cc23)cc1C1CCCC1 [GSK650394] (first compound 5 µM, partner dose 0.8 µM)",69.1
16,"O=c1[nH]nc(Sc2ncc([N+](=O)[O-])s2)n1-c1ccc2c(c1)OCCO2 + O=C(/C=C/c1cccnc1)NCCCCC1CCN(C(=O)c2ccccc2)CC1 [FK866] (first compound 1 µM, partner dose 0.05 µM)",51.6

row,Compound,cell count [%]
1,"O=c1[nH]nc(Sc2ncc([N+](=O)[O-])s2)n1-c1ccc2c(c1)OCCO2 + CC1(C)NC(=O)N(c2ccc([N+](=O)[O-])c(C(F)(F)F)c2)C1=O [nilutamide] (first compound 1 µM, partner dose 5 µM)",91.6
2,"O=c1[nH]nc(Sc2ncc([N+](=O)[O-])s2)n1-c1ccc2c(c1)OCCO2 + C=CCn1c(=O)c2cnc(Nc3ccc(N4CCN(C)CC4)cc3)nc2n1-c1cccc(C(C)(C)O)n1 [MK1775] (first compound 1 µM, partner dose 0.1 µM)",51.5
3,"O=c1[nH]nc(Sc2ncc([N+](=O)[O-])s2)n1-c1ccc2c(c1)OCCO2 + Cn1cncc1[C@@](N)(c1ccc(Cl)cc1)c1ccc2c(c1)c(-c1cccc(Cl)c1)cc(=O)n2C [tipifarnib] (first compound 1 µM, partner dose 0.05 µM)",99
4,"CC1(C)NC(=O)N(c2ccc([N+](=O)[O-])c(C(F)(F)F)c2)C1=O [nilutamide] + C=CCn1c(=O)c2cnc(Nc3ccc(N4CCN(C)CC4)cc3)nc2n1-c1cccc(C(C)(C)O)n1 [MK1775] (first compound 5 µM, partner dose 0.1 µM)",52.5
5,"COc1cc(Nc2ncc(F)c(Nc3ccc4c(n3)NC(=O)C(C)(C)O4)n2)cc(OC)c1OC [Tamatinib] + C=CCn1c(=O)c2cnc(Nc3ccc(N4CCN(C)CC4)cc3)nc2n1-c1cccc(C(C)(C)O)n1 [MK1775] (first compound 2 µM, partner dose 0.1 µM)",83.7
6,"COc1cc(Nc2ncc(F)c(Nc3ccc4c(n3)NC(=O)C(C)(C)O4)n2)cc(OC)c1OC [Tamatinib] + O=C(Nc1cccc(Cl)c1)Nc1ncc(CCNc2ncnc3ccsc23)s1 [SNS314] (first compound 2 µM, partner dose 0.004 µM)",14.6
7,"O=c1[nH]nc(Sc2ncc([N+](=O)[O-])s2)n1-c1ccc2c(c1)OCCO2 + COc1ccc(C2=N[C@@H](c3ccc(Cl)cc3)[C@@H](c3ccc(Cl)cc3)N2C(=O)N2CCNC(=O)C2)c(OC(C)C)c1 [Nutlin-3] (first compound 1 µM, partner dose 0.5 µM)",111
8,"O=C(O)c1ccc(-c2c[nH]c3ncc(-c4ccccc4)cc23)cc1C1CCCC1 + NCC(=O)Nc1ccc(-n2nc(C(F)(F)F)cc2-c2ccc3c(ccc4ccccc43)c2)cc1 [OSU03012] (first compound 0.8 µM, partner dose 5 µM)",54.7
9,"C[C@@H]1CCN(C(=O)CC#N)C[C@@H]1N(C)c1ncnc2[nH]ccc12 + COc1cc2ncnc(Nc3ccc(Oc4ccccc4)cc3)c2cc1OC [SrcI1] (first compound 5 µM, partner dose 10 µM)",127
10,"COc1cc(Nc2ncc(F)c(Nc3ccc4c(n3)NC(=O)C(C)(C)O4)n2)cc(OC)c1OC [Tamatinib] + NCC(=O)Nc1ccc(-n2nc(C(F)(F)F)cc2-c2ccc3c(ccc4ccccc43)c2)cc1 [OSU03012] (first compound 2 µM, partner dose 5 µM)",14.8
11,"CC1(C)NC(=O)N(c2ccc([N+](=O)[O-])c(C(F)(F)F)c2)C1=O [nilutamide] + CN(C)S(=O)(=O)c1ccc2c(c1)/C(=C/c1cc3c([nH]1)CCCC3)C(=O)N2 [SU6656] (first compound 5 µM, partner dose 2 µM)",70.1
12,"COc1cc(Nc2ncc(F)c(Nc3ccc4c(n3)NC(=O)C(C)(C)O4)n2)cc(OC)c1OC [Tamatinib] + CO[C@@H]1[C@H](N(C)C(=O)c2ccccc2)C[C@H]2O[C@]1(C)n1c3ccccc3c3c4c(c5c6ccccc6n2c5c31)C(=O)NC4 [Midostaurin] (first compound 2 µM, partner dose 0.4 µM)",14.1
13,"O=c1[nH]nc(Sc2ncc([N+](=O)[O-])s2)n1-c1ccc2c(c1)OCCO2 + Nc1nc(F)nc2c1ncn2[C@@H]1O[C@H](CO)[C@@H](O)[C@@H]1O [fludarabine] (first compound 1 µM, partner dose 1 µM)",63
14,"COc1cc(Nc2ncc(F)c(Nc3ccc4c(n3)NC(=O)C(C)(C)O4)n2)cc(OC)c1OC [Tamatinib] + CC1(C)NC(=O)N(c2ccc([N+](=O)[O-])c(C(F)(F)F)c2)C1=O [nilutamide] (first compound 2 µM, partner dose 5 µM)",40.9
15,"O=c1[nH]nc(Sc2ncc([N+](=O)[O-])s2)n1-c1ccc2c(c1)OCCO2 + CC(=O)O[C@@]12CO[C@@H]1C[C@H](O)[C@@]1(C)C(=O)[C@H](O)C3=C(C)[C@@H](OC(=O)[C@H](O)[C@@H](NC(=O)OC(C)(C)C)c4ccccc4)C[C@@](O)([C@@H](OC(=O)c4ccccc4)[C@H]21)C3(C)C [Docetaxel] (first compound 1 µM, partner dose 0.0005 µM)",17.1
